From paper PMC6602471
The list shows a part of the results. At the low end of the ranking the order means little.

The sequences below were run against T1, ELK1 (UniProt P19419) (assay: custom PBM). Settings: custom protein-binding microarray; buffer, salt, pH and temperature not stated; high values mean tight binding; double strand, one strand shown.
T1 sequence: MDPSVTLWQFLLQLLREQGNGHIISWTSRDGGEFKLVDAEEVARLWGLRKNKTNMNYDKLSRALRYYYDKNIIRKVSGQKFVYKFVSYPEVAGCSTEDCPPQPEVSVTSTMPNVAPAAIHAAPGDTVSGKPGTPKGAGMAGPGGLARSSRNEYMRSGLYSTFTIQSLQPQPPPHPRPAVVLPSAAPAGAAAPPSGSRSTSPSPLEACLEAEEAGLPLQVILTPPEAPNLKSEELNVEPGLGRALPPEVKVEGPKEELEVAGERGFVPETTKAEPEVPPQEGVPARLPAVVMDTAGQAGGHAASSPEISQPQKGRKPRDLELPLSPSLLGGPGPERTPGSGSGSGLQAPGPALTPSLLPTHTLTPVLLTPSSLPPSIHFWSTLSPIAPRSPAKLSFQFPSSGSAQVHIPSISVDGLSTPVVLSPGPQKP

| Sequence | binding signal (log fluorescence intensity) |
| --- | --- |
| CACAATTTTTACGGTAATGTAGCACGCGTAACTCCTGTCTTGATTCGCTTGACGCTGCTG | 8.85 |
| TAAAGGGCAGACGGTTGTGGTAGTTCCGGGTATTAAGTCTTGATTCGCTTGACGCTGCTG | 11 |
| CACAATTTTTACAGTAATGTAGCACGCGAAACTCCTGTCTTGATTCGCTTGACGCTGCTG | 8.87 |
| TACTTACTTATATATGCGAATGCACATGAATAGACCGTCTTGATTCGCTTGACGCTGCTG | 9.06 |
| GATTAATTTCTGCACTTATTCGCACGTGCCATAACAGTCTTGATTCGCTTGACGCTGCTG | 8.99 |
| CTGCGACTTGACCCAACTCTGCCACGTGGGTCGTTTGTCTTGATTCGCTTGACGCTGCTG | 8.96 |
| CGGAAGTGTCGTAACCGTCGGATATCCGGTTCTTCTGTCTTGATTCGCTTGACGCTGCTG | 12.5 |
| GCTGCTGCGGTGCAGACCCCACCGGATGTGACCCCGGTCTTGATTCGCTTGACGCTGCTG | 10.2 |
| TCCGGCTACCAGCTCCACCCACTGCAGGCCTTGTAGGTCTTGATTCGCTTGACGCTGCTG | 8.95 |
| TGTCGGGTAAGGGAATGTAGTTCACGTGAATGAAAAGTCTTGATTCGCTTGACGCTGCTG | 8.78 |
| CGGAAGTGTCGTAAACGTCGGATATCCGGTTCTGCTGTCTTGATTCGCTTGACGCTGCTG | 12.5 |
| CTGGGACTTGACCCTACTCTGCCACGTGGGTCGTTTGTCTTGATTCGCTTGACGCTGCTG | 8.91 |
| GCTGCTGCGGTGCATACCCCCCCGGATGTGACCCCGGTCTTGATTCGCTTGACGCTGCTG | 9.57 |
| CAGCATAGGACTTCTTCCCTGATGCAATTGATAACCGTCTTGATTCGCTTGACGCTGCTG | 8.84 |
| CGGAAGTGTCGTAAACGTCGGATATCCGGTTCTCCTGTCTTGATTCGCTTGACGCTGCTG | 12.6 |
| CTGGGTCTTGACCCAACTCTGCCACGTGGGTCGTTTGTCTTGATTCGCTTGACGCTGCTG | 8.93 |
| TAAAGGGAAGACGGTTGTAGTAGTTCCGGGTATTAAGTCTTGATTCGCTTGACGCTGCTG | 11.3 |
| GATTAATGTCTGCCCTTATTCGCACGTGCCATAACAGTCTTGATTCGCTTGACGCTGCTG | 8.85 |
| CTCGGACTTGACCCAACTCTGCCACGTGGGTCGTTTGTCTTGATTCGCTTGACGCTGCTG | 8.77 |
| TCCGGCTACCAGCTCCACCCCCTTCAGGCCTTGTAGGTCTTGATTCGCTTGACGCTGCTG | 8.87 |
| TACTGACTTATATACGCGAATGCACATGAATAGACCGTCTTGATTCGCTTGACGCTGCTG | 8.93 |

| Sequence | binding signal (log fluorescence intensity) |
| --- | --- |
| CAGCTTAGGACTTCTTCCCTGAAGCAATTGATAACCGTCTTGATTCGCTTGACGCTGCTG | 8.81 |
| CACAATTTTTACAGTAATGTAGCCCGCGTAACTCCTGTCTTGATTCGCTTGACGCTGCTG | 8.91 |
| TCCCGCTACCAGCTCCACCCACTTCAGGCCTTGTAGGTCTTGATTCGCTTGACGCTGCTG | 8.83 |
| CTGGGACTTGACCCAACTCTGCCACGTGGGCCGTTTGTCTTGATTCGCTTGACGCTGCTG | 9.05 |
| TAAAGGGGAGACGGTTGTGGTAGTTCCGGGTATTAAGTCTTGATTCGCTTGACGCTGCTG | 11.2 |
| CACAATTTTTACACTAATGTAGCACGCGTAACTCCTGTCTTGATTCGCTTGACGCTGCTG | 8.83 |
| CACAATTTTTACAGTAATGTAGCACGCTTAACTCCTGTCTTGATTCGCTTGACGCTGCTG | 8.8 |
| GTGTATAGAATCCCATCCAACACACGTGTTAAAATGGTCTTGATTCGCTTGACGCTGCTG | 8.97 |
| CAGCATAGGACTTCTTCCATGAAGCAATTGATAACCGTCTTGATTCGCTTGACGCTGCTG | 8.94 |
| CGGAAGTGTCGTAAACGTCGGAAATCCGGTTCTTCTGTCTTGATTCGCTTGACGCTGCTG | 11.9 |
| CGGAAGTGTCGTAAACGTCGGATATCCGGTCCTTCTGTCTTGATTCGCTTGACGCTGCTG | 12.6 |
| CTGGGACTTGACCCAACTCTTCCACGTGGGTCGTTTGTCTTGATTCGCTTGACGCTGCTG | 8.84 |
| GATTAATTTCTGCCCTGATTCGCACGTGCCATAACAGTCTTGATTCGCTTGACGCTGCTG | 8.88 |
| GCTGCTGAGGTGCATACCCCACCGGATGTGACCCCGGTCTTGATTCGCTTGACGCTGCTG | 10.2 |
| TCCGGCTACCAGCTGCACCCACTTCAGGCCTTGTAGGTCTTGATTCGCTTGACGCTGCTG | 8.88 |
| GGAAATAGGCCCAGGGTAACACCGGAAGTGGGCTTAGTCTTGATTCGCTTGACGCTGCTG | 11.1 |
| TTGGGACTTGACCCAACTCTGCCACGTGGGTCGTTTGTCTTGATTCGCTTGACGCTGCTG | 8.85 |
| CTGGGACTTGACCCAACTCTGCCAAGTGGGTCGTTTGTCTTGATTCGCTTGACGCTGCTG | 8.89 |
| TTAAGGGAAGACGGTTGTGGTAGTTCCGGGTATTAAGTCTTGATTCGCTTGACGCTGCTG | 11.3 |
| TCCGGCTACCAGCTCCACCCACTTCTGGCCTTGTAGGTCTTGATTCGCTTGACGCTGCTG | 8.96 |
